In PubChem BioAssay AID485294 (National Center for Advancing Translational Sciences (NCATS), 2010):
In all, about 370,000 compounds went through this assay and about 150 (0.041%) were called active. Inconclusive means that the source gave no clear call. Such entries were picked first, then a sample of the others. Calls follow the shape of the dose curve; as a rule, active = well fitted inhibition curve with a large enough effect; inconclusive = small, poorly fitted or top-dose-only effect; inactive = flat fitted curve, though single readings scatter. No potency is given beside an inconclusive call; the fits are too rough.
Also: nearly all actives have a fitted effect of over 25% in size.
Potency is read from the fitted curve at half-maximal effect; tags tell the direction and shape of the fitted curve.

What follows are compounds tested against Beta-lactamase (Escherichia coli (strain K12)) (UniProt P00811) (assay: qHTS Inhibitors of AmpC Beta-Lactamase (assay with detergent)). Details: AmpC hydrolysis of nitrocefin, absorbance 480 nm, 0.01% Triton; series mostly up to 114 µM.
UniProt P00811, sequence (P00811 whole entry, looked up): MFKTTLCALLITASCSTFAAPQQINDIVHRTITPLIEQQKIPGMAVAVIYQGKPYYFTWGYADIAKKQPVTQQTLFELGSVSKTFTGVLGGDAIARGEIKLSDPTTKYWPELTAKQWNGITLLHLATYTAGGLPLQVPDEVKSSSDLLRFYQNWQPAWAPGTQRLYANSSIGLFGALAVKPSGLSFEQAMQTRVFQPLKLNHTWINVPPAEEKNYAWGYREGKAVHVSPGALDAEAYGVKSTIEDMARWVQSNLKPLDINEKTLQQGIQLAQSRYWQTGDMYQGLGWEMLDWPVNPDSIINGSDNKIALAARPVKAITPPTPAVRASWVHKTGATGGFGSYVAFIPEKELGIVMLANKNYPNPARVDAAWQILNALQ
Method in brief: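 20 mM phosphate pH 7.0 + 0.01% (detergent screen) or 0.0001% Triton X-100; 5.3 nM AmpC reagent; cpd preinc 15 min RT; nitrocefin (800 uM stock) to start; A480 q20 s × 4 min; Activity was normalised to no-enzyme and no-compound control wells.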
With `O=C1CC(N2CCC(C(=O)N3CCCCC3)CC2)C(=O)N1` (stereo not given) the Potency was inconclusive [inhibitor, full curve, poor fit]. In the case of `O=c1[nH]c(/C=C/c2ccccc2OC(F)F)nc2c1cnn2-c1ccccc1`, the Potency was inconclusive [inhibitor, full curve]. With `Cc1ccc(CC2C(=O)N(c3ncccn3)C(=O)C2C)cc1` (stereo not given) the Potency was “inactive”. In the case of `O=C(NN=C1CCCC1)c1n[nH]c2c1CCCC2`, the Potency was “inactive”. With `CCOC(=O)c1ccc(NC(=O)c2nn(C)cc2Br)cc1` the Potency was inconclusive [inhibitor, partial curve, poor fit]. `Cc1ccc(NC(=O)/C(CN(C)C)=N\O)cc1` was tested, and the Potency was inconclusive [inhibitor, single point]. `CCN(C(=O)CSc1nc(-c2ccccc2)no1)c1cccc(C)c1` was tested, and the Potency was “inactive”. For `O=C1Cc2cc(NS(=O)(=O)c3ccc([N+](=O)[O-])cc3)cc3c2N1CCC3`, the Potency was “inactive”. With `O=C(c1cccc(F)c1)N1CCN(C(=O)C2CC2)CC1` the Potency was inconclusive [inhibitor, partial curve, poor fit]. For `CC(=O)c1cc2c(cc1NS(=O)(=O)c1ccc(C)cc1)OCCO2`, the Potency was inconclusive [inhibitor, full curve, poor fit]. In the case of `CC(=O)Nc1ccc(N=Cc2c(O)ccc3ccccc23)cc1`, the Potency was inconclusive [inhibitor, partial curve]. `Cc1ccc(CCc2nnc(SCC(=O)Nc3cccc(Cl)c3)n2-c2ccccc2)o1` was tested, and the Potency was inconclusive [inhibitor, single point]. With `Cc1cccc(N(CC(=O)Nc2ccccc2-c2ccccc2)S(=O)(=O)c2ccccc2)c1C` the Potency was “inactive”. In the case of `COc1cccc(Cn2c(OCC3CCCO3)nc3c2c(=O)n(C)c(=O)n3C)c1` (stereo not given), the Potency was inconclusive [inhibitor, full curve, poor fit]. `O=C(NCC1CCCO1)C(c1ccco1)N(Cc1ccc(F)cc1)C(=O)CN1C(=O)c2ccccc2S1(=O)=O` (stereo not given) was tested, and the Potency was inconclusive [inhibitor, partial curve, poor fit]. In the case of `CCOC(=O)C1CCN(CC(O)COCc2cccs2)CC1` (stereo not given), the Potency was inconclusive [inhibitor, full curve, poor fit]. `CCN(CC(=O)Nc1ccc(NC(C)=O)cc1)C(=O)COc1ccc2ccccc2c1` was tested, and the Potency was inconclusive [inhibitor, full curve, poor fit]. `COc1ccccc1OCC(=O)NCCS(=O)(=O)N1CCN(c2ccccc2)CC1` was tested, and the Potency was inconclusive [inhibitor, full curve]. For `O=C(N/N=C/c1cccc([N+](=O)[O-])c1)c1cnccn1`, the Potency was “inactive”. `CN(CC(=O)Nc1ccc(S(=O)(=O)N2CCCC2)cc1)Cc1c(F)cccc1Cl` was tested, and the Potency was inconclusive [inhibitor, partial curve, poor fit]. `COc1ccc(/C=C2/N=C3CCCCCN3C2=O)cc1OC` was tested, and the Potency was inconclusive [inhibitor, partial curve, poor fit]. With `COc1cc(NC(=O)CN(C)C2CCCCC2)c(C)cc1[N+](=O)[O-]` the Potency was inconclusive [inhibitor, full curve]. `CC1Cc2cc(/C=C3/SC(=S)N(C)C3=O)ccc2O1` (stereo not given) was tested, and the Potency was inconclusive [inhibitor, full curve, poor fit]. `S=C(Nc1ccccc1)N1CCc2ccccc21` was tested, and the Potency was inconclusive [inhibitor, full curve, poor fit]. In the case of `COc1ccc(OC)c(S(=O)(=O)NC(C)(C)C)c1`, the Potency was inconclusive [inhibitor, full curve, poor fit]. In the case of `O=C(O)c1cccc(S(=O)(=O)N(Cc2ccccc2)c2ccccc2)c1`, the Potency was inconclusive [inhibitor, partial curve, poor fit]. For `COc1cccc(N(C(=O)c2snc(C(N)=O)c2N)C(C(=O)NCc2ccccc2)c2ccc(O)cc2)c1` (stereo not given), the Potency was “inactive”. For `CS(=O)(=O)N(CC(=O)N1CCCC1)c1cc(Cl)ccc1Cl`, the Potency was inconclusive [inhibitor, partial curve, poor fit]. For `COc1cc2c(cc1OC)C(c1ccc(F)cc1)N(c1ccccc1)C(=O)C2` (stereo not given), the Potency was “inactive”. `CCOC(=O)c1ccc(COC(=O)c2cc(=O)[nH]c3ccccc23)o1` was tested, and the Potency was inconclusive [inhibitor, full curve]. For `C=CCSC1=N/C(=C\c2ccsc2)C(=O)S1`, the Potency was inconclusive [inhibitor, full curve, poor fit]. In the case of `COC(=O)c1cnn(-c2ccc(Cl)cc2)c1/C=N/NC(N)=S`, the Potency was “inactive”. With `O=C(c1cc(Cl)ccc1O)N1CCN(S(=O)(=O)c2cccs2)CC1` the Potency was inconclusive [inhibitor, full curve, poor fit]. In the case of `CCOC(=O)C1CCCN(C(=O)c2ccc(CS(=O)(=O)c3ccc(Br)cc3)o2)C1` (stereo not given), the Potency was inconclusive [inhibitor, full curve, poor fit]. For `COc1ccccc1N(C)S(=O)(=O)c1ccc(Cl)c(C(=O)NCC2(N(C)C)CCCCC2)c1`, the Potency was “inactive”. With `COc1ccc(S(=O)(=O)NC(C)C(=O)NCc2cccnc2)cc1C` (stereo not given) the Potency was inconclusive [inhibitor, partial curve]. For `O=C(NC1CCCC1)C1CCCN(S(=O)(=O)c2cnc[nH]2)C1` (stereo not given), the Potency was inconclusive [inhibitor, full curve, poor fit]. `Cc1cccc(NC(=O)C23CCC(C)(/C(=N/O)C2)C3(C)C)c1` (stereo not given) was tested, and the Potency was inconclusive [inhibitor, partial curve]. In the case of `CCOCCCn1c(=NC(=O)c2ccc(OC)c(OC)c2)c(C#N)cc2c(=O)n3cccc(C)c3nc21`, the Potency was inconclusive [inhibitor, partial curve, poor fit]. `Cc1cc(Br)ccc1NC(=O)COc1cc(=O)n(C)c2ccccc12` was tested, and the Potency was “inactive”. In the case of `CSc1ccccc1OCc1cc(C(=O)NC(C)CCn2cccn2)no1` (stereo not given), the Potency was “inactive”. In the case of `CCOC(=O)CSc1nnc(NC(=O)c2ccco2)s1`, the Potency was inconclusive [inhibitor, full curve, poor fit]. `C=CCOc1ccc(Br)cc1CNCC` was tested, and the Potency was inconclusive [inhibitor, full curve, poor fit]. With `CC(C)C(c1nnnn1C1CCCCC1)N1CCOCC1` (stereo not given) the Potency was inconclusive [inhibitor, full curve, poor fit]. With `CCOC(=O)c1cnn(-c2ncnc3c2oc2ccccc23)c1N` the Potency was inconclusive [inhibitor, full curve, poor fit]. In the case of `COC(=O)c1cc(S(=O)(=O)N2CCN(c3cccc(Cl)c3)CC2)c[nH]1`, the Potency was inconclusive [inhibitor, partial curve]. For `Cc1ccc(N2CC(C(=O)Nc3nnc(SCC(=O)Nc4cc(C)on4)s3)CC2=O)cc1` (stereo not given), the Potency was inconclusive [inhibitor, partial curve]. `CC(=O)Nc1ccccc1OCC(=O)c1cc(C)n(Cc2cccs2)c1C` was tested, and the Potency was “inactive”. For `O=C(Nc1cccnc1)c1ccc(CN2CCc3ccccc3C2)cc1`, the Potency was inconclusive [inhibitor, full curve, poor fit]. In the case of `Cc1cnc(=O)[nH]c1SCc1cccc([N+](=O)[O-])c1`, the Potency was inconclusive [inhibitor, full curve, poor fit]. For `CC1CCCC(C)N1C(=O)COC(=O)CSc1ccc(C(N)=O)cc1[N+](=O)[O-]` (stereo not given), the Potency was inconclusive [inhibitor, full curve]. With `c1ccc(Cn2nnnc2C(c2cccnc2)N2CCN(c3ccccc3)CC2)cc1` (stereo not given) the Potency was inconclusive [inhibitor, full curve]. `CC(C)NCC(O)COc1ccc(CCOCC2CC2)cc1` (stereo not given) was tested, and the Potency was inconclusive [inhibitor, single point]. For `COc1cc(/C=C/C(=O)Nc2nc3ccc(S(=O)(=O)N(C)C)cc3s2)cc(OC)c1OC`, the Potency was inconclusive [inhibitor, full curve, poor fit]. In the case of `C#CCNc1nc(CC)nc2c1nnn2Cc1ccccc1F`, the Potency was inconclusive [inhibitor, full curve, poor fit]. For `CC(OC(=O)C1CCCC1)C(=O)Nc1ccc(C(N)=O)cc1` (stereo not given), the Potency was inconclusive [inhibitor, full curve, poor fit]. For `O=C(Cc1csc(NC(=O)c2ccccc2)n1)NO`, the Potency was inconclusive [inhibitor, full curve, poor fit]. In the case of `Cn1c(=O)[nH]c(=O)c2c1nc(N1CCN(CCO)CC1)n2CCSc1nc2ccccc2s1`, the Potency was inconclusive [inhibitor, full curve, poor fit]. For `Cc1ccc(-n2nc(C(=O)NCc3ccc(C)o3)c3c4ccccc4n(C)c3c2=O)cc1`, the Potency was inconclusive [inhibitor, full curve, poor fit]. In the case of `CCCSc1nnc2c(n1)OC(c1cccn1C)N(C(C)=O)c1ccccc1-2` (stereo not given), the Potency was inconclusive [inhibitor, full curve, poor fit]. In the case of `COc1cccc(NC(=O)CSc2nnc3[nH]c(=O)cc(-c4ccccc4)n23)c1`, the Potency was “inactive”. With `O=C(CCNc1ccc(F)cc1)c1ccco1` the Potency was “inactive”. `O=C(CSc1nc2ccccc2[nH]1)c1cccs1` was tested, and the Potency was inconclusive [inhibitor, full curve, poor fit]. For `COc1cccc(-n2ccnc2SCC(=O)Nc2nc3ccc(C)cc3s2)c1`, the Potency was “inactive”. With `CCN1CC2=C(OC(N)=C(C#N)C2c2cccs2)/C(=C/c2cccs2)C1` (stereo not given) the Potency was “inactive”.
